Experimental data published in the supplement of paper PMC4604168 (melanoma cell lines).
The other results are listed elsewhere or left out. Repeats are few or missing, and single values can be far off.

Test system: SkMel30
Assay: cell count relative to DMSO control; melanoma cells; higher = more viable cells
Settings: library dose: standard library concentration; 72 h
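Also: cells treated in 1,536-well plates, then fixed and DAPI-stained, with nuclei counted from automated high-throughput microscope images.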

Compound | cell count [%]
CC1(C)CCC(c2ccc(Cl)cc2)=C(CN2CCN(c3ccc(C(=O)NS(=O)(=O)c4ccc(N[C@H](CCN5CCOCC5)CSc5ccccc5)c(S(=O)(=O)C(F)(F)F)c4)cc3)CC2)C1 + c1cc(-c2cnn3cc(-c4ccc(OCCN5CCCCC5)cc4)cnc23)ccn1 [Dorsomorphin] (first compound 2 µM, partner dose 2 µM) | 72
Cc1ccc(Nc2nccc(N(C)c3ccc4c(C)n(C)nc4c3)n2)cc1S(N)(=O)=O [Pazopanib] + CO[C@@H]1[C@H](N(C)C(=O)c2ccccc2)C[C@H]2O[C@]1(C)n1c3ccccc3c3c4c(c5c6ccccc6n2c5c31)C(=O)NC4 [Midostaurin] (first compound 2 µM, partner dose 0.4 µM) | 67.8
O=C(/C=C/c1cccnc1)NCCCCC1CCN(C(=O)c2ccccc2)CC1 + CO[C@@H]1[C@H](N(C)C(=O)c2ccccc2)C[C@H]2O[C@]1(C)n1c3ccccc3c3c4c(c5c6ccccc6n2c5c31)C(=O)NC4 [Midostaurin] (first compound 0.05 µM, partner dose 0.4 µM) | 91
Cc1ccc(Nc2nccc(N(C)c3ccc4c(C)n(C)nc4c3)n2)cc1S(N)(=O)=O [Pazopanib] + Oc1nc(-c2ccc(C(F)(F)F)cc2)nc2c1CSCC2 [XAV939] (first compound 2 µM, partner dose 10 µM) | 84.6
CC1(C)CCC(c2ccc(Cl)cc2)=C(CN2CCN(c3ccc(C(=O)NS(=O)(=O)c4ccc(N[C@H](CCN5CCOCC5)CSc5ccccc5)c(S(=O)(=O)C(F)(F)F)c4)cc3)CC2)C1 + Cc1ccc(Nc2nccc(N(C)c3ccc4c(C)n(C)nc4c3)n2)cc1S(N)(=O)=O [Pazopanib] (first compound 2 µM, partner dose 2 µM) | 58.4
CC1(C)CCC(c2ccc(Cl)cc2)=C(CN2CCN(c3ccc(C(=O)NS(=O)(=O)c4ccc(N[C@H](CCN5CCOCC5)CSc5ccccc5)c(S(=O)(=O)C(F)(F)F)c4)cc3)CC2)C1 + CCCCCCCCCCCC1=C(O)C(=O)C=C(O)C1=O [Embelin] (first compound 2 µM, partner dose 6 µM) | 74.9
Cc1ccc(Nc2nccc(N(C)c3ccc4c(C)n(C)nc4c3)n2)cc1S(N)(=O)=O [Pazopanib] + NCC(=O)Nc1ccc(-n2nc(C(F)(F)F)cc2-c2ccc3c(ccc4ccccc43)c2)cc1 [OSU03012] (first compound 2 µM, partner dose 5 µM) | 29.4
O=C(/C=C/c1cccnc1)NCCCCC1CCN(C(=O)c2ccccc2)CC1 + Cn1cc(/C=C2\C(=O)Nc3cccnc32)c2ccccc21 [GW441756] (first compound 0.05 µM, partner dose 2 µM) | 124
O=C(/C=C/c1cccnc1)NCCCCC1CCN(C(=O)c2ccccc2)CC1 + CCCCCCCCCCCC1=C(O)C(=O)C=C(O)C1=O [Embelin] (first compound 0.05 µM, partner dose 6 µM) | 117
O=C(/C=C/c1cccnc1)NCCCCC1CCN(C(=O)c2ccccc2)CC1 + Cc1cc(Nc2cc(N3CCN(C)CC3)nc(/C=C/c3ccccc3)n2)n[nH]1 [ENMD2076] (first compound 0.05 µM, partner dose 0.2 µM) | 89.6
O=C(/C=C/c1cccnc1)NCCCCC1CCN(C(=O)c2ccccc2)CC1 + COC(=O)c1sccc1S(=O)(=O)Nc1ccc(Nc2ccccc2)cc1OC [GSK0660] (first compound 0.05 µM, partner dose 5 µM) | 111

Test system: SkMel5
Assay: as above
Settings: library dose: standard library concentration; 72 h

Compound | cell count [%]
CC1(C)CCC(c2ccc(Cl)cc2)=C(CN2CCN(c3ccc(C(=O)NS(=O)(=O)c4ccc(N[C@H](CCN5CCOCC5)CSc5ccccc5)c(S(=O)(=O)C(F)(F)F)c4)cc3)CC2)C1 + Cc1cc([N+](=O)[O-])ccc1NS(=O)(=O)c1cc(Cl)ccc1Cl [FH535] (first compound 2 µM, partner dose 5 µM) | 53.7
O=C(/C=C/c1cccnc1)NCCCCC1CCN(C(=O)c2ccccc2)CC1 + CCc1ccc(CCOc2ccc(CC3SC(=O)NC3=O)cc2)nc1 [pioglitazone] (first compound 0.05 µM, partner dose 10 µM) | 101
Cc1ccc(Nc2nccc(N(C)c3ccc4c(C)n(C)nc4c3)n2)cc1S(N)(=O)=O [Pazopanib] + COc1cc(N2CCC(N3CCN(C)CC3)CC2)ccc1Nc1ncc(Cl)c(Nc2ccccc2S(=O)(=O)C(C)C)n1 [NVP-TAE684] (first compound 2 µM, partner dose 0.4 µM) | 57.3
O=C(/C=C/c1cccnc1)NCCCCC1CCN(C(=O)c2ccccc2)CC1 + COc1ccc(-c2ccc3c(N4CCOCC4)nc(N4C[C@@H](C)O[C@@H](C)C4)nc3n2)cc1CO [KU0063794] (first compound 0.05 µM, partner dose 0.1 µM) | 61.1
Cc1ccc(Nc2nccc(N(C)c3ccc4c(C)n(C)nc4c3)n2)cc1S(N)(=O)=O [Pazopanib] + CCN(CC)CCCCNc1ncc2cc(-c3cc(OC)cc(OC)c3)c(NC(=O)NC(C)(C)C)nc2n1 [PD173074] (first compound 2 µM, partner dose 0.5 µM) | 62.8
CC1(C)CCC(c2ccc(Cl)cc2)=C(CN2CCN(c3ccc(C(=O)NS(=O)(=O)c4ccc(N[C@H](CCN5CCOCC5)CSc5ccccc5)c(S(=O)(=O)C(F)(F)F)c4)cc3)CC2)C1 + NCC(=O)Nc1ccc(-n2nc(C(F)(F)F)cc2-c2ccc3c(ccc4ccccc43)c2)cc1 [OSU03012] (first compound 2 µM, partner dose 5 µM) | 17.9
CC1(C)CCC(c2ccc(Cl)cc2)=C(CN2CCN(c3ccc(C(=O)NS(=O)(=O)c4ccc(N[C@H](CCN5CCOCC5)CSc5ccccc5)c(S(=O)(=O)C(F)(F)F)c4)cc3)CC2)C1 + Cc1cc(Nc2cc(N3CCN(C)CC3)nc(/C=C/c3ccccc3)n2)n[nH]1 [ENMD2076] (first compound 2 µM, partner dose 0.2 µM) | 70.7
Cc1ccc(Nc2nccc(N(C)c3ccc4c(C)n(C)nc4c3)n2)cc1S(N)(=O)=O [Pazopanib] + c1cc(-c2cnn3cc(-c4ccc(OCCN5CCCCC5)cc4)cnc23)ccn1 [Dorsomorphin] (first compound 2 µM, partner dose 2 µM) | 50.4
CC1(C)CCC(c2ccc(Cl)cc2)=C(CN2CCN(c3ccc(C(=O)NS(=O)(=O)c4ccc(N[C@H](CCN5CCOCC5)CSc5ccccc5)c(S(=O)(=O)C(F)(F)F)c4)cc3)CC2)C1 + CCc1ccc(CCOc2ccc(CC3SC(=O)NC3=O)cc2)nc1 [pioglitazone] (first compound 2 µM, partner dose 10 µM) | 86
Cc1ccc(Nc2nccc(N(C)c3ccc4c(C)n(C)nc4c3)n2)cc1S(N)(=O)=O [Pazopanib] + COC(=O)c1sccc1S(=O)(=O)Nc1ccc(Nc2ccccc2)cc1OC [GSK0660] (first compound 2 µM, partner dose 5 µM) | 70.3
Cc1ccc(Nc2nccc(N(C)c3ccc4c(C)n(C)nc4c3)n2)cc1S(N)(=O)=O [Pazopanib] + C#Cc1cccc(Nc2ncnc3cc(OCCOC)c(OCCOC)cc23)c1 [erlotinib] (first compound 2 µM, partner dose 4 µM) | 57
O=C(/C=C/c1cccnc1)NCCCCC1CCN(C(=O)c2ccccc2)CC1 + CN(NC(=O)CC(=O)NN(C)C(=S)c1ccccc1)C(=S)c1ccccc1 [STA4783] (first compound 0.05 µM, partner dose 0.03 µM) | 62.1
CC1(C)CCC(c2ccc(Cl)cc2)=C(CN2CCN(c3ccc(C(=O)NS(=O)(=O)c4ccc(N[C@H](CCN5CCOCC5)CSc5ccccc5)c(S(=O)(=O)C(F)(F)F)c4)cc3)CC2)C1 + O=C(O)C(=O)Nc1sc2c(c1C(=O)O)CCNC2 [TCS401] (first compound 2 µM, partner dose 8.33333 µM) | 88.2
Cc1ccc(Nc2nccc(N(C)c3ccc4c(C)n(C)nc4c3)n2)cc1S(N)(=O)=O [Pazopanib] + O=S(=O)(c1ccccc1)N(CC(F)(F)F)c1ccc(C(O)(C(F)(F)F)C(F)(F)F)cc1 [T0901317] (first compound 2 µM, partner dose 7 µM) | 64.1
O=C(/C=C/c1cccnc1)NCCCCC1CCN(C(=O)c2ccccc2)CC1 + COc1ccc(COc2ccc(Cc3cnc(N)nc3N)cc2OC)cc1 [GW2580] (first compound 0.05 µM, partner dose 5 µM) | 74.2
Cc1ccc(Nc2nccc(N(C)c3ccc4c(C)n(C)nc4c3)n2)cc1S(N)(=O)=O [Pazopanib] + CCCCCCCCCCCC1=C(O)C(=O)C=C(O)C1=O [Embelin] (first compound 2 µM, partner dose 6 µM) | 84.2
Cc1ccc(Nc2nccc(N(C)c3ccc4c(C)n(C)nc4c3)n2)cc1S(N)(=O)=O [Pazopanib] + O=c1cc(-c2cccc3c2Sc2ccccc2S3)oc(N2CCOCC2)c1 [KU55933] (first compound 2 µM, partner dose 5 µM) | 86.8
O=C(/C=C/c1cccnc1)NCCCCC1CCN(C(=O)c2ccccc2)CC1 + O=C(Nc1cccc(Cl)c1)Nc1ncc(CCNc2ncnc3ccsc23)s1 [SNS314] (first compound 0.05 µM, partner dose 0.004 µM) | 106
